# According to PubChem BioAssay AID1508624 (National Center for Advancing Translational Sciences (NCATS), 2021):
# About 120 (0.25%) of roughly 48,000 compounds were called active. Roughly 4% stayed inconclusive and do not appear here. Calls come from the whole dose curve; as a rule, active = well fitted activation curve with a large enough effect; inconclusive = small, poorly fitted or top-dose-only effect, or another doubt; inactive = no such curve, though single readings can be large or run the other way. Some of the results follow.
# Assay: Primary qHTS for Identification of Small Molecule Activators of Huntingtin-Antisense Promoter Activity; note: nearly all actives have a fitted effect of over 55% in size
# Details: HEK293 HTT-AS promoter firefly luciferase reporter (activity 0% = vehicle and -100% = no light), 24 h; series mostly up to 57.5 µM; activity change, positive = activation: at the top concentration
# Method in brief: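 Firefly luciferase readout (Dual-Glo, 10 min RT) after 24 h, 37 °C compound exposure (final up to 57.5 uM) of HEK293 reporter cells cultured 24 h beforehand; PTC124 at 50 uM final as control inhibitor; activity scaled vehicle 0%, zero RLU -100%.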
row,Structure (SMILES),"activity change, positive = activation"
1,CSc1cccc(NC(=O)C2CCN(c3nc4ccccc4[nH]3)CC2)c1,inactive: -5.4%
2,COc1ccc(Cl)c2sc(NC(=O)c3ccc(S(=O)(=O)N4CCOCC4)cc3)nc12,inactive: -16.8%
3,CCc1ccc(NC(=O)Cn2c(=O)n(-c3ccc(Cl)c(Cl)c3)c(=O)c3c(C)c(C)sc32)cc1,inactive: 7.32%
4,COc1ccc(NC(=O)c2c(NCc3cccs3)sc3c2CCC(C)C3)c(OC)c1 (stereo unspecified),inactive: -15.9%
5,O=C(CSc1nnc(-c2ccccc2Cl)o1)N1CCCc2ccccc21,inactive: -18%
6,CCCCCN(CCCOC)C(=O)C(CCC(=O)O)NC(=O)c1ccc(Cl)c(Cl)c1 (stereo unspecified),inactive: -6.31%
7,Cc1c(C(=O)N(Cc2ccccc2F)C2CCS(=O)(=O)C2)oc2ccccc12 (stereo unspecified),inactive: -11.7%
8,Cc1nn(C)c2c1c(C(F)(F)F)cc(=O)n2C(C)C(=O)Nc1ccccc1F (stereo unspecified),inactive: -43.1%
9,CCOc1ccc(C(=O)c2cn(CC(=O)Nc3ccc(Cl)cc3)c3cc4c(cc3c2=O)OCO4)cc1,inactive: -32.3%
10,COc1ccc(S(=O)(=O)NCC(c2cccs2)S(=O)(=O)c2ccccc2)cc1OC (stereo unspecified),inactive: 0.981%
11,COc1ccc(-c2nnc(SCC(=O)Nc3cccc(C(F)(F)F)c3)s2)cc1,inactive: -10.7%
12,CC(=O)N1CCc2cc(Br)cc(S(=O)(=O)CCC(=O)N3CCN(c4ccc(F)cc4)CC3)c21,inactive: -26.9%
13,Cc1ccc(NC(=O)Nc2cc(C(F)(F)F)ccc2F)cc1Nc1ccc2c(c1)NC(=O)C2=Cc1ccc[nH]1,inactive: -37.2%
14,CN1CC[C@H](c2c(O)cc(O)c3c(=O)cc(-c4ccccc4Cl)oc23)[C@H](O)C1,inactive: -35%
15,COc1ccc(CC(=O)NCc2ccc3c(c2)CCN3C(=O)c2ccccc2)cc1OC,inactive: -6.89%
16,COc1ccc(C2=NC(c3ccncc3)=Nc3ccc(Br)cc3N2)cc1,inactive: -19.1%
17,CCn1cc(C(=O)N2CCN(c3ccc(F)cc3)CC2)c(=O)c2cc(S(=O)(=O)N(C)C3CCCCC3)ccc21,inactive: -1.52%
18,CCOC(=O)C1=C(CN2CCCCC2)NC(=O)NC1c1cc(C)ccc1C (stereo unspecified),inactive: 4.61%
19,COc1ccccc1N1CCN(C(CNC(=O)C(=O)NCc2ccc(C)cc2)c2cccnc2)CC1 (stereo unspecified),inactive: -57.5%
20,CC(C)(C)c1ccc(OCCn2cc(C(=O)c3ccco3)c3ccccc32)cc1,inactive: -26.9%
21,CCc1cccc(NC(=O)C2CCCN(S(=O)(=O)c3cccs3)C2)c1 (stereo unspecified),inactive: -19.7%
22,CCCC(CCC)C(=O)Nc1cc(-c2cn3cccnc3n2)ccc1OC,inactive: -11.4%
23,CCc1ccc(N2C(=O)CSC23C(=O)N(Cc2ccc(C)cc2)c2ccccc23)cc1 (stereo unspecified),inactive: -37.4%

row,Structure (SMILES),"activity change, positive = activation"
1,Cc1oc(-c2cccc(Cl)c2)nc1CN1CCC(C(=O)NCCCN2CCN(c3ccc(F)cc3)CC2)CC1,inactive: -45.8%
2,O=C(CSc1nc2c(c(=O)[nH]1)CCC2)Nc1ccccc1C(F)(F)F,inactive: -11.1%
3,COc1ccc(S(=O)(=O)c2c(C)c(NS(=O)(=O)c3ccccc3)cc(C)c2O)cc1,inactive: -21.7%
4,COc1ccc(Cn2cc(C(=O)c3ccc(C)cc3)c(=O)c3cc(OC)c(OC)cc32)cc1,inactive: -7.62%
5,O=C(NCN1CCOCC1)c1cnccn1,inactive: -6.21%
6,O=C(c1ccc2c(c1)CCCC2)N1CCN(c2nc3c(F)cccc3s2)CC1,inactive: -2.59%
7,COc1cc(C(c2c(C)[nH][nH]c2=O)c2c(C)[nH][nH]c2=O)ccc1OC(=O)c1cccc(C)c1,inactive: -5.8%
8,CCn1cc(C(=O)NCc2ccccc2)c(=O)c2cc(S(=O)(=O)N3CCc4ccccc4C3)ccc21,inactive: -27.4%
9,CCOC(=O)C1CCCCN1S(=O)(=O)c1csc(C(N)=O)c1 (stereo unspecified),inactive: -24.1%
10,CCCCOc1ccc(CN2C(=O)C(=O)c3cc(Br)cc(C)c32)cc1OC,inactive: -44.7%
11,CCOc1ccccc1CNC(=O)C1CCCN(c2ncnc3onc(-c4ccc(F)cc4)c23)C1 (stereo unspecified),inactive: -15.2%
12,Cc1ccc(CN2CCc3nc(N4CCN(c5ccccc5F)CC4)ncc3C2)cc1C,inactive: -22.1%
13,Cc1cccc(C)c1-n1ncc(C(=O)Nc2ccc3c(c2)OCO3)c1C1CCN(C(=O)OC(C)(C)C)CC1,inactive: 7.02%
14,COc1cccc(-c2cc(C(F)(F)F)nc(NCCc3ccccc3)n2)c1,inactive: -3.83%
15,COc1ccccc1CCNC(=O)c1ccc2c(c1)c(C)c(C)n2Cc1ccc(Cl)cc1,inactive: -19.8%
16,O=C(NCc1ccccc1Cl)C1CCCN(C(=O)c2cnn(-c3ccccc3)c2-n2cccc2)C1 (stereo unspecified),inactive: -35.8%
17,O=C(O)Cn1c(=O)n(Cc2ccc(Br)cc2F)c(=O)c2ccc(Cl)cc21,inactive: -3.86%
18,COc1ccc(-c2cc(=O)c3c(O)cc(O)cc3o2)cc1O,inactive: 15.3%
19,Cc1ccc2c(c1)-c1nc(-c3ccc4c(c3)NC(=O)CO4)cc(-c3ccc(F)cc3)c1CO2,inactive: -4.22%
20,Cc1nc2c(C(=O)NCCc3ccc(Cl)cc3)c[nH]n2c(=O)c1Cc1ccc(Cl)cc1,inactive: -22.7%
21,O=C(CSc1nnc(-c2ccc(O)cc2)o1)c1ccc(Br)cc1,inactive: -0.86%
22,COc1ccccc1C(=O)Nc1c(C(=O)N(C)Cc2ccccc2)sc2nc(C)c(Cl)c(C)c12,inactive: -46.7%
23,Cc1cccc(-c2nc3c(c(SCc4ccccc4Cl)n2)Cc2c(CO)cnc(C)c2O3)c1,inactive: -15.2%
